The campaign covered roughly 310,000 compounds. About 14,000 (4.5%) showed an effect of 50% or more. The effect is printed as a negative number. The list shows a part of the results.
The compounds below were run against human ether-à-go-go-related gene (hERG) potassium channel (human, UniProt Q12809) (assay: primary screen, population patch clamp on CHO cells stably expressing hERG).
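Further: peak tail current of the secondary pulse compared with the same well before compound.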

Chain of human ether-à-go-go-related gene (hERG) potassium channel (Q12809 whole entry, looked up): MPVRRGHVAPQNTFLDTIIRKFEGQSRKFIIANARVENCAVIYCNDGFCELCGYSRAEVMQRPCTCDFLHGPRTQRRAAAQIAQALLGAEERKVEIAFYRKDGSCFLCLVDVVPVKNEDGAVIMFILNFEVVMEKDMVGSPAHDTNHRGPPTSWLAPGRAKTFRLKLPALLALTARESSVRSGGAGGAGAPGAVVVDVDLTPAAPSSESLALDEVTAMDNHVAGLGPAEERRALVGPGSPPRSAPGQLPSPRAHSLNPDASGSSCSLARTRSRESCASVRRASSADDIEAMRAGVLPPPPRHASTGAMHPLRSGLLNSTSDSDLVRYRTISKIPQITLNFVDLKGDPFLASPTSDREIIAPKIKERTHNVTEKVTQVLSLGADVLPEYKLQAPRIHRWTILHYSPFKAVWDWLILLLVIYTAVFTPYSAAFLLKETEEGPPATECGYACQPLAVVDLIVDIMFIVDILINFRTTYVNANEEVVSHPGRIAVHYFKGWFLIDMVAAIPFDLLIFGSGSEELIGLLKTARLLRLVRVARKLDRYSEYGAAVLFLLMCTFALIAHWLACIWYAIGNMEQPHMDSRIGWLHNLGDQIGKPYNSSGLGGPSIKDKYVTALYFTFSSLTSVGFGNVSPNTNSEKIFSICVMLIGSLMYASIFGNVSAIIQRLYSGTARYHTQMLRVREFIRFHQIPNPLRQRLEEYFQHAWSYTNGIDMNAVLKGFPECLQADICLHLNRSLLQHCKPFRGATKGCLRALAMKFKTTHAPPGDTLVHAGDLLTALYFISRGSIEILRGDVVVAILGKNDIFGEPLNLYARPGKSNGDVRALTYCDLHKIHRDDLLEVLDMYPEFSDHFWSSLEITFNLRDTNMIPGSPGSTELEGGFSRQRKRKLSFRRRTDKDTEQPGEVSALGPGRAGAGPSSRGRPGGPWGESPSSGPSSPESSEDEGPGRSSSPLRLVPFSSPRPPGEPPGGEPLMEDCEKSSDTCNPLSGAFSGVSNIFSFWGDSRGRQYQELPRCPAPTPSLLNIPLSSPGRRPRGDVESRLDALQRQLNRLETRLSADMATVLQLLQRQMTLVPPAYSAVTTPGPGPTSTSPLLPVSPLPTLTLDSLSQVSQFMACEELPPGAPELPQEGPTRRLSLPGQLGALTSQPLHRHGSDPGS

| SMILES | hERG current change (%, negative = inhibition) at 10uM [%] |
| --- | --- |
| Cc1c(C)[n+](=O)c(-c2ccc(Br)cc2)c(C)n1[O-] | 13.1 |
| CCCCCn1c(=O)c(F)cn(Cc2ccc(OC)c([N+](=O)[O-])c2)c1=O | -56.6 |
| O=C(O)C(=O)O.O=[N+]([O-])c1ccccc1CN1CCN(Cc2c[nH]c3ccccc23)CC1 | -24.2 |
| CNC(=O)CSc1nccn1Cc1ccc(Cl)cc1 | -64.9 |
| Cl.c1cncc(CNC2CCCC2)c1 | 17.5 |
| CN1C(=O)N(C)C2CC1N(C)C(=O)N2C | 1.84 |
| Cc1nc2ccccn2c1C(=O)NCCCN1CCOCC1 | 11.4 |
| Cc1ccc(C(=O)OC2OC(=O)C(Cl)=C2N2CCOCC2)cc1 (stereo not drawn) | -7.17 |
| CC(C)[C@H](NC(=O)N1c2ccccc2NC(=O)[C@@H]1C(C)C)C(=O)N1CCC[C@H]1C(=O)O | 18.8 |
| O=C(N/N=C/c1ccccn1)c1ccc([N+](=O)[O-])cc1 | 48 |
| COc1ccc([N+](=O)[O-])cc1NC(=O)COC(=O)c1ccccn1 | 4 |
| Cc1cc(C)c(NC(=O)CSc2nnc(-c3ccncc3)n2Cc2ccco2)c(Cl)c1 | -52.7 |
| O=C(Oc1ccnc2cc(Cl)ccc12)N1CCCCCC1 | -23 |
| CCCn1c(=S)[nH]c2cc(C(=O)N3CCN(C(=O)OCC)CC3)ccc2c1=O | -6.49 |
| COC(=O)c1ccccc1NC(=O)c1ccc2nccnc2c1 | 12.6 |
| CN1CC(c2ccccc2)C(c2ccc(Cl)cc2)=N1 (stereo not drawn) | 1.66 |
| CN(C(=O)c1ccncc1)c1nnc(-c2ccccn2)s1 | 1.22 |
| Cc1ccc(NC(=S)NCc2ccccn2)cc1 | 8.8 |
| CCC1=NN(C(=O)C(=O)Nc2ccccc2OC)C(O)(C(F)(F)F)C1 (stereo not drawn) | 24.4 |
| Cc1ccc(N(Cc2cc3ccc(C)cc3[nH]c2=O)C(=O)c2cccs2)cc1 | 1.3 |
| O=C(Nc1cccc(Cl)c1)c1ccc(S(=O)(=O)NCC2CCCO2)cc1 (stereo not drawn) | -7.31 |
| CC(=C1C2C=CC1C1C(=O)NC(=O)C21)c1ccccc1 (stereo not drawn) | 2.05 |
| CC(=O)NC(C)c1nc2ccccc2n1CC(=O)NC(C)CCc1ccccc1 (stereo not drawn) | 8.74 |

| SMILES | hERG current change (%, negative = inhibition) at 10uM [%] |
| --- | --- |
| Clc1ccc2c(c1)C1OCCC1C(c1ccco1)N2 (stereo not drawn) | -16.2 |
| CC(=O)c1ccc(S(=O)(=O)N(C)CCCC(=O)N(C)Cc2ccccc2F)cc1 | -35 |
| C=CCNC(=O)/C(C#N)=C/c1cn(-c2ccccc2)nc1-c1ccc(OC)c([N+](=O)[O-])c1 | 0.277 |
| COCc1cc(C)nc(Oc2ccccc2)c1C#N | -2.11 |
| O=C(c1c[nH]c2ccccc12)C(Cl)c1ccccc1 (stereo not drawn) | 13.9 |
| C=CCOc1nc2c(c(=O)n(Cc3ccc(Cl)cc3)c(=O)n2C)n1C | -2.66 |
| CC(=O)c1ccc(NC(=O)CCC(=O)OCC(F)(F)C(F)F)cc1 | 7.18 |
| Cc1cc(C)c(NC(=O)COC(=O)C2=COCCO2)c(Cl)c1 | 12.8 |
| O=C(O)CSCc1ccc(Cl)cc1 | 8.76 |
| Clc1ccc(-c2nnc(-c3ccco3)o2)cc1 | 4.59 |
| COc1ccc(-c2csc(NCc3ccco3)n2)cc1C | 13.5 |
| CCC1(C(=O)OC)NC(c2ccco2)C2C(=O)N(c3ccccc3)C(=O)C21 (stereo not drawn) | 4.8 |
| O=C(c1ccc(Cl)s1)N1CCN(C23CC4CC(CC(C4)C2)C3)CC1 | -12.7 |
| CCC/C(C)=C/c1ccc(CC)cn1 | 6.39 |
| CCCCCn1c(CN2CCN(C(=O)OCC)CC2)nc2c1c(=O)n(C)c(=O)n2C | -34.6 |
| CC(Nc1nc(=S)nc(Nc2ccc(F)cc2)[nH]1)c1ccccc1 (stereo not drawn) | 22.8 |
| O=C(CS(=O)c1ccc(F)cc1)Nc1ccccc1Cl (stereo not drawn) | 26.7 |
| C=CCN=C(C)C1=C(O)C(C)OC1=O (stereo not drawn) | -1.78 |
| O=C(CN1CCCCC1)NNC(=O)c1ccc([N+](=O)[O-])cc1 | -9.32 |
| Cc1ccccc1-n1cc(C(=O)c2cc(Cl)ccc2O)cc(C#N)c1=O | 5.29 |
| O=C(OCC(=O)N1CCN(c2ccccc2)CC1)c1cc(Cl)ccc1[N+](=O)[O-] | -37 |
| Cc1cccc(Nc2nnc(SCC(=O)c3c(N)n(C4CC4)c(=O)[nH]c3=O)s2)c1C | 3.14 |
| N#CC1(P(=O)(c2ccccc2)c2ccccc2)CC1 | -12.9 |

| SMILES | hERG current change (%, negative = inhibition) at 10uM [%] |
| --- | --- |
| O=C(NCc1ccccc1C(F)(F)F)C1CC(O)CN1C(=O)Nc1ccccc1 (stereo not drawn) | 18.5 |
| COc1ccc(/C=N\NC(=O)c2ccc([N+](=O)[O-])c(C)c2)cc1COc1ccccc1C(N)=O | 23.8 |
| CC(C)(C)NC(=O)C(c1ccccn1)N(C(=O)C1CSC(=O)C1)c1cccc(F)c1 (stereo not drawn) | 13.1 |
| Cc1cccc(OCC(=O)Nc2ccc(N3CCN(C(=O)c4ccco4)CC3)cc2)c1 | -28.1 |
| O=C(Nc1ccc(C(F)(F)F)cc1)C1(c2ccccc2)CC1 | -15.2 |
| O=c1cc(-c2ccc(O)c(O)c2)oc2cc(O)c(C3OC(CO)C(O)C(O)C3O)c(O)c12 (stereo not drawn) | 3.72 |
| COc1ccc(OC)c(C2C(C(=O)c3ccc(C)o3)=C(O)C(=O)N2CCN2CCOCC2)c1 (stereo not drawn) | 16.7 |
| COc1ccc(C)cc1Nc1n[n+](-c2ccccc2)c(-c2c(OC)ccc3ccccc23)s1.[Cl-] | -53.8 |
| O=C(O)/C=C/C(=O)Nc1ccc2nccnc2c1 | 24.7 |
| OCCNc1nc(-c2ccccc2)nc2c1oc1ccccc12 | -0.0828 |
| CCCc1ccc(OCC(O)CN2CCCC2)cc1.Cl (stereo not drawn) | -27.8 |
| CCC1=NC(c2ccccc2OC)N(O)C1(C)C (stereo not drawn) | 15.9 |
| O=C(N/N=C/c1cc(O)ccc1[N+](=O)[O-])c1ccc2c(c1)OCCO2 | -2.12 |
| COc1ccc(CCNC(=O)Nc2ccc(F)cc2F)cc1OC | 21 |
| CSc1nc2ccsc2c(=O)n1-c1ccccn1 | 14.3 |
| Cc1ccc(NC(=O)N2CCCC2C(=O)NCC2CCCCC2)cc1 (stereo not drawn) | 14.5 |
| CCCCCNC(=O)CN(c1ccc2c(c1)OCO2)S(C)(=O)=O | 8.95 |
| COP(=O)(OC)C(Nc1ccccn1)c1ccccc1 (stereo not drawn) | 26.6 |
| O=C(c1cc2cc(F)ccc2[nH]1)N1CCC2(CC1)OCCO2 | -6.7 |
| COc1ccc(-n2c(SCCC#N)nnc2-c2cc(Cl)ccc2OC)cc1Cl | 8.39 |
| Cc1cc(C)c(S(=O)(=O)NCCSCc2ccco2)c(C)c1 | 6.54 |
| CCOc1ccccc1N | 11.7 |
| CCCCC(CC)C(=O)Nc1cc(=O)[nH]c2nc3ccccc3n12 (stereo not drawn) | 16.9 |

| SMILES | hERG current change (%, negative = inhibition) at 10uM [%] |
| --- | --- |
| O=C(NCc1ccc(C(=O)O)cc1)OCc1ccccc1 | 13.8 |
| O=C(CSc1nnc(CNC(=O)c2c(F)cccc2Cl)o1)NCc1ccc2c(c1)OCO2 | -19.8 |
| COc1ccc2cc3c(N)c(C(=O)N4CCCC4)sc3nc2c1 | -11.3 |
| Cc1ccc(OCC(=O)NC2CCCC(C)C2C)c([N+](=O)[O-])n1 (stereo not drawn) | -14.1 |
| O=C(CSCc1cnn(-c2ccccc2)c1-n1cccc1)NCCN1CCOCC1 | 6.64 |
| CC(C)c1ccc(-n2cnn(-c3ncccc3[N+](=O)[O-])c2=O)cc1 | -13.6 |
| COc1ccc(NC(=O)c2cc3c(-c4ccc(OC)c(OC)c4)nn(C)c3s2)cc1OC | 13.9 |
| N#Cc1cn(CC(=O)N2CCCc3ccccc32)c2ccccc12 | -14.7 |
| CN(C)CCSc1nc(O)c(-c2ccccc2)c(=O)n1-c1ccccc1 | 2.82 |
| CCOc1cc2[nH]c(=O)n(CCCCC(=O)N3CCCCCC3)c(=O)c2cc1OCC | 4.75 |
| COc1ccc(C(=O)NNC(=S)NC(=O)c2ccc(OC)cc2)cc1 | 27.6 |
| O=C(N/N=C/c1ccc(OC(F)F)cc1OC(F)F)NC1CCCCC1 | 1.4 |
| CCc1ccccc1NC(=S)N1CCN(c2ccccc2F)CC1 | 4.49 |
| CCc1sc(C(=O)NCCc2ccc(S(N)(=O)=O)cc2)cc1C | 12.8 |
| C/C(N)=C(/C#N)C(=O)CSc1nnc(Nc2ccccc2)s1 | 16.6 |
| COCCn1c(=O)[nH]c2cc(C(=O)NCc3cccnc3)ccc2c1=O | -20.9 |
| CC1CCN(C(=O)Cn2cc3c(n2)CCCC3)CC1 | -1.06 |
| COC(=O)Cc1cccc2c(=O)c3ccccc3oc12 | 23.8 |
| CC1CN(CC(O)COc2ccccc2C(C)(C)C)CC(C)O1.Cl (stereo not drawn) | -10.1 |
| COC(=O)[C@@]1(Cc2ccc(OC)cc2)[C@H]2c3cc(C(=O)N(C)C)n(CCc4ccc(OC)c(Br)c4)c3C[C@H]2CN1C(=O)c1ccccc1 | 11.4 |
| CN(C(=O)COC(=O)c1ccc(NS(=O)(=O)c2cccs2)cc1)C1CCCCC1 | -13.2 |

Reference: PMC4336329 (PLoS ONE, 2015)
